Test results: the GPR68 mutational scans of Howard et al. (2025)

B1: GPR68, Q15743 (parent)
chain: MGNITADNSSMSCTIDHTIHQTLAPVVYVTVLVVGFPANCLSLYFGYLQIKARNELGVYLCNLTVADLFYICSLPFWLQYVLQHDNWSHGDLSCQVCGILLYENIYISVGFLCCISVDRYLAVAHPFRFHQFRTLKAAVGVSVVIWAKELLTSIYFLMHEEVIEDENQHRVCFEHYPIQAWQRAINYYRFLVGFLFPICLLLASYQGILRAVRRSHGTQKSRKDQIQRLVLSTVVIFLACFLPYHVLLLVRSVWEASCDFAKGVFNAYHFSLLLTSFNCVADPVLYCFVSETTHRDLARLRGACLAFLTCSRTGRAREAYPLGAPEASGKSGAQGEEPELLTKLHPAFQTPNSPGSGGFPTGRLA

Legend:
[1] = variants of: B1; assay: cAMP reporter score (Enrich2 score, wild type = 0); higher = more signal; HEK293T, FACS bins
[2] = variants of: B1; assay: surface expression score (Enrich2 score, wild type = 0); higher = more signal; HEK293T, FACS bins

Variant	cAMP reporter score ([1]; pH 5.5)	cAMP reporter score ([1]; pH 6)	cAMP reporter score ([1]; pH 6, modulator: ogerin)	cAMP reporter score ([1]; pH 6.5, modulator: ogerin)	surface expression score [2]
I71_C72insGSG	-1.33	-0.402	-1.05	-1.01	-2.01
Y70_I71del	-1.15	-1.5		-1.03	-2.52
S73_L74insG	-1.45	-1.22	-0.604	-1.13	
P75C	-0.431	-0.056		-0.431	
P75W	-0.602			-1.18	-1.55
P75L	-0.776	-0.567	-0.819	-0.666	-0.797
P75Q	-0.242	-1.1	-1.96	-1.32	-1.59
P75E	-2.59	-1.35	-1.95	-1.06	-2.66
P75I	-1.27	-1.33	-1.72	-1.83	-2.52
P75Y	-0.504	-0.708	-0.996	0.12	-0.954
P75R	-2.12	-0.982	-1.25	-0.746	-1.31
P75S	-2.13	-0.341	-1.76	-1.09	
P75H	-1.56	-0.972	-1.57	-1.14	-2.15
P75G	-0.066	-0.558	-0.708	-0.433	-0.926
P75F	-1.13		-1.2		-1.69
P75N	-2.09	-1.86		-0.626	-2.15
P75K	-1.64	-0.466		-0.617	-2.46
P75V	-0.178	-0.01	-0.724	-0.43	0.143
L74_P75insGSG	-1.35	-1.55	-1.31	-0.875	-2.9
F76S	-1.05	-0.862	-1.26	-0.669	-2.39
F76C	-0.384		-0.612	-1.03	-0.829
F76A	-1.24	-0.745	-1.1	-0.965	-1.84

Variant	cAMP reporter score ([1]; pH 5.5)	cAMP reporter score ([1]; pH 6)	cAMP reporter score ([1]; pH 6, modulator: ogerin)	cAMP reporter score ([1]; pH 6.5, modulator: ogerin)	surface expression score [2]
F76Q	-1.49	-0.801	-2.28	-1.49	-1.78
F76H	-1.8			-0.526	-2.08
F76E	-1.51	-2.26	0.534	-3.23	-2.81
F76R	-0.637	0.118	-2.09	-2.68	-0.403
F76V	-1.37		-0.722	-0.942	-0.247
F76N	-0.019		-0.287	-1.37	-1.19
F76M	-0.156		0.797	-0.518	-0.932
F76P	-0.732	1.75	-0.659		
F76K	-1.06	-1.65	-0.077	-1.14	-1.25
F76I	-1.68	-0.905	-1.9	-1.25	-0.481
F76L	0.123	0.429	-0.007	-0.902	-0.711
F76Y	0.511	-0.125	0.334	0.431	0.262
F76D	-0.679		-0.649		
F76T	-1.32		-1.65	-0.979	-0.09
F76G	-0.697	-0.972	-0.968	-0.642	-1.72
C72_S73insG	-0.316	-0.69	-0.492	-1.99	1.71
P75del	-1.27	-0.685	-2.18	-0.732	-1.02
L78_Q79insGS	-0.735	-1.03	-1.59	-1.09	-1.12
Q79_V81del	-0.804	0.749	-0.781	-0.756	1.9
L78_Q79insGSG	-1.02	-1.79			-1.96
C72I	0.999		1.65	0.393	1.81
C72K	-2.03	-0.907	-0.599	-0.969	-2.48

Variant	cAMP reporter score ([1]; pH 5.5)	cAMP reporter score ([1]; pH 6)	cAMP reporter score ([1]; pH 6, modulator: ogerin)	cAMP reporter score ([1]; pH 6.5, modulator: ogerin)	surface expression score [2]
C72R	-1.49	-0.37	-1.75	-0.982	-1.81
C72E	-1.08	-1.41	-3.09		
C72D	-2.1		-1.96	-1.68	-2.16
C72F	-0.503	0.85	-0.207	-0.199	-1.08
C72G	-0.568	-0.26	-0.569	0.03	-1.57
C72H	-1.13			-0.924	
C72L	0.141	0.458	0.269	-0.282	0.658
C72T	0.383	0.297	-0.495	0.522	0.096
C72S	1.1	1.35	1.27	0.068	-0.954
C72N	-0.486			-0.421	
C72A	0.679	2.06	1.3	1.32	-0.409
C72Q	-1.11	1.02		-0.205	-2.07
C72Y	-0.688	-0.476	-0.79	-0.631	-0.778
C72W	1.1	-0.324	-0.149	-0.969	-2.15
I71_C72del	-2.06	-0.662	0.035		
S73_L74insGSG	-0.661	-2.1			-1.91
S73del	-0.737	-0.292	-0.787	-1.14	-1.59
W77K	-1.84			-0.807	-0.324
W77Q	-1.49	-1.63	-1.65	-0.397	0.609
W77S	-0.626	-0.256	-0.976	-0.46	-1.02
W77N	-1.81	-1.46	-1.47	-0.897	0.647
W77I	-2.27	-1.91	-1.45	-1.25	-1.05

Variant	cAMP reporter score ([1]; pH 5.5)	cAMP reporter score ([1]; pH 6)	cAMP reporter score ([1]; pH 6, modulator: ogerin)	cAMP reporter score ([1]; pH 6.5, modulator: ogerin)	surface expression score [2]
W77V	-1.61	-1.43		-1.78	0.202
W77Y	-1.19	-0.811	-1.25	-1.08	2.39
W77A	-1.88	-1.04	-1.89	-1.28	0.179
W77F	-1.1	-1.71	-0.791	-1.4	-0.159
W77P	-1.36	-0.817	-1.56	-1.44	-1.99
W77D	-1.11	-1.32	-1.24	-1.44	-1.48
W77R	-1.66		-1.36	-0.942	0.805
W77H	-1.38	-1.83	-0.718	-1.6	1.5
W77L	-2.13	-0.737	-1.25	-1.46	1.19
W77E	-2.48		-1.09	-1.76	
W77M	-1.51	-0.844	-0.799	-0.286	1.57
W77C	-1.52	-0.478	-1.8	-1.52	1.56
W77T	-1.56	-0.49	-2.09	-0.763	1.49
W77G	-0.45	-0.959	-0.464	-0.743	0.921
L74_P75insG	-1.64	-1.28	-1.1	-1.08	-2.61
F76del	-1.4	-1.17	-2.08	-1.23	-0.457
L78Q	-1.43	-0.952	-1.7	-1.74	-1.65
L78Y	-0.667	-0.559	-1.15	-0.718	0.348
L78V	0.41	-1.28	-0.526	-0.591	-0.255
L78K	-1.25	-1.46	-1.11	-1.09	-1.44
L78R	-1.68	-1.55	-1.48	-0.782	-1.2
L78N	-0.411	-0.522	-0.683		

Variant	cAMP reporter score ([1]; pH 5.5)	cAMP reporter score ([1]; pH 6)	cAMP reporter score ([1]; pH 6, modulator: ogerin)	cAMP reporter score ([1]; pH 6.5, modulator: ogerin)	surface expression score [2]
L78F	-0.702	-0.182	-0.282		-0.546
L78S	-0.967			-0.38	0.169
L78E	-1.43	-1.79	-1.09	-0.777	-2.94
L78W	-0.626	-0.457	-0.638	-1.37	-0.528
L78P	-0.698	-1.59	-1.66	-0.469	-0.806
L78H	-0.985	-0.621	-1.54	-1.39	
L78D	-1.79	-1.29		-0.491	-3.58
L78M	-0.476	-0.518	-0.661	-1.07	-0.599
L78G	-1.08	-2.15	-0.588	-1.1	-1.78
L78A	0.606		-0.9	-0.161	-0.183
L78I	0.402		-0.692	-0.748	1.29
L78C	-0.811		-1.92	-0.999	1.15
L78T	-0.876			0.34	-1.23
P75_F76insG	-1.21	-1.25	-2.28	-1.42	-1.44
C72del	-0.688	-0.596	-1.59	-0.412	-2.42
F69_Y70insGSG	-1.1	-1.54	-0.704	-0.847	-3.05
L74_P75insGS	-1.81	0.059		-1.5	-2.68
F69Q	-0.516	-0.617	-1.13	-1.61	-2.31
F69P	-0.414	-1.13		-0.673	
F69G	-0.298	-0.936			-1.32
F69H	-0.083	-0.449	-0.073	-0.431	-1.88
F69R	-0.342		-0.767	-0.961	-0.831

Variant	cAMP reporter score ([1]; pH 5.5)	cAMP reporter score ([1]; pH 6)	cAMP reporter score ([1]; pH 6, modulator: ogerin)	cAMP reporter score ([1]; pH 6.5, modulator: ogerin)	surface expression score [2]
F69V	0.102	-1.43	-1.13	-0.717	1.02
F69M	0.961	0.3	0.181	-0.533	1.25
F69I	-0.19	-0.853	-0.937	-1.06	1.75
F69W	-0.642	-0.899	-1.46	-1.31	-0.033
F69Y	-0.699	-0.947	-1.46	-1.62	-1.43
F69E	-1.9	-1.44		-1.93	-2.62
F69T	-0.343	-0.361	-1.27	-0.629	-0.896
F69S	0.401	-0.957	-0.478	-1.03	-1.15
F69K	-1.75	-0.875	-0.718	-0.969	-2.35
F69N	-0.746	-0.289	-0.691		
F69L	-0.364	1.09	-0.549	-0.353	0.166
P75_F76del	-0.482	0.644	-0.687	-0.391	0.395
P75_F76insGS	-1.07		-1.57	-1.48	-3.39
F69del	-1.3	-0.561		-0.395	-1.89
Y80F	-0.53	0.634	-0.912	-0.432	-0.954
Y80G	-1.16	-1.92	-1.32	-1.14	-0.533
Y80E	-1.73	-1.76	-1.58	-1.07	0
Y80D	-1.14	-0.572	-1.25	-1.12	-0.51
Y80H	-1.17	-0.428	-1.48	-1.26	0.485
Y80C	-0.762	-0.371	-0.705	-0.81	-0.5
Y80A	-0.865	-0.765		-1.15	0.788
L78_Q79insG	-1.27	-1.12	-1.66	-0.126	-0.469

The least precise scores are not listed. The source holds two more conditions with little spread; they are left out. Names with del lack the residues named; names with ins carry added residues between the positions named. For some assays here: The concentration of ogerin is not given here.
